According to a collection of fitness landscapes (doi:10.1016/j.celrep.2020.107928):
In all, about 81,000 sequences were measured (“one-hybrid fitness for binding NBS DNA”: median about -0.1, highest 2% from about 0.36 on). The list shows a part of the results.

B1: Caulobacter ParB omega fusion; a variant is named by its letters at X, in order, B8GW30 (parent)
chain: MESVVVGEPGMSEGRRGLGRGLSALLGEVDAAPAQAPGEQLGGSREAPIEILQRNPDQPRRTFREEDLEDLSNSIREKGVLQPILVRPSPDTAGEYQIVAGERAWRAAQRAGLKTVPIMVRELDDLAVLEIGIIENVQRADLNVLEEALSYKVLMEKFERTQENIAQTIGKSXSHVANXMRLLXLPDEVQSYLVSGELTAXHARAIAAAADPVALAKQIIEGGLSVRETEALARKAPNLSAGKSKGGRPPRVKDTDTQALESDLSSVLGLDVSIDHRGSTGTLTITYATLEQLDDLCNRLTRGI

Variants of: B1
Assay: one-hybrid fitness for binding NBS DNA (the Noc-binding site; scaled: cognate 1, non-cognate 0); higher = stronger binding
Settings: with NBS DNA site
In short: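 Bacterial one-hybrid selection in E. coli USO rpoZ- hisB- pyrF- with a HIS3 reporter carrying the site 19 bp from the promoter, screening Caulobacter ParB libraries with four specificity codons randomised (NNS). Cells grew 48 hours at 37°C on M9-minus-histidine plus 0.1 mM IPTG and 5 mM 3-AT. Plasmids before and after selection were Illumina-sequenced, three replicate libraries pooled, and variants under 10 reads dropped. Fitness is the log change in variant-to-wild-type read ratio, rescaled to cognate 1, non-cognate 0.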

Row | Variant | one-hybrid fitness for binding NBS DNA
1 | PLSF | ≤ 0.2
2 | QSGL | ≤ 0.2
3 | SEVA | ≤ 0.2
4 | QTKA | 0.708
5 | HCMW | ≤ 0.2
6 | KFPD | ≤ 0.2
7 | HGTA | ≤ 0.2
8 | WTQR | ≤ 0.2
9 | YRVC | ≤ 0.2
10 | VPWR | ≤ 0.2
11 | CDTS | ≤ 0.2
12 | AKVN | ≤ 0.2
13 | CMLE | ≤ 0.2
14 | HYIR | ≤ 0.2
15 | AHEK | ≤ 0.2
16 | NDKD | ≤ 0.2
17 | HSLL | ≤ 0.2
18 | NQSV | ≤ 0.2
19 | HTGS | ≤ 0.2
20 | DTSE | ≤ 0.2
21 | LELN | ≤ 0.2
22 | QMTP | ≤ 0.2
23 | GMFL | ≤ 0.2
24 | VPRN | ≤ 0.2

Row | Variant | one-hybrid fitness for binding NBS DNA
25 | ECSN | ≤ 0.2
26 | TAWC | ≤ 0.2
27 | CQKA | ≤ 0.2
28 | IACF | ≤ 0.2
29 | CLGY | ≤ 0.2
30 | HTHW | ≤ 0.2
31 | GFDC | ≤ 0.2
32 | SSTV | ≤ 0.2
33 | QREM | ≤ 0.2
34 | APMC | ≤ 0.2
35 | KERD | ≤ 0.2
36 | TYNG | ≤ 0.2
37 | CRTA | ≤ 0.2
38 | RLTI | ≤ 0.2
39 | TSIL | ≤ 0.2
40 | VHVV | ≤ 0.2
41 | MTFG | ≤ 0.2
42 | AVWS | ≤ 0.2
43 | HCLG | ≤ 0.2
44 | HCWS | ≤ 0.2
45 | PYPG | ≤ 0.2
46 | WRQV | ≤ 0.2
47 | PIYE | ≤ 0.2
48 | KAST | ≤ 0.2

Row | Variant | one-hybrid fitness for binding NBS DNA
49 | HWTG | ≤ 0.2
50 | NGPP | ≤ 0.2
51 | AWRA | ≤ 0.2
52 | EAGV | ≤ 0.2
53 | AYFF | ≤ 0.2
54 | PKSN | ≤ 0.2
55 | WYRS | ≤ 0.2
56 | RDLR | ≤ 0.2
57 | RIRI | ≤ 0.2
58 | DERR | ≤ 0.2
59 | TKCC | ≤ 0.2
60 | QPFW | ≤ 0.2
61 | PVTI | ≤ 0.2
62 | HYPE | ≤ 0.2
63 | GVYA | ≤ 0.2
64 | ACRR | 0.213
65 | LPNC | ≤ 0.2
66 | FAAL | ≤ 0.2
67 | PMTK | ≤ 0.2
68 | EATD | ≤ 0.2
69 | PHES | ≤ 0.2
70 | VQTT | ≤ 0.2
71 | HNPA | ≤ 0.2
72 | IEKP | ≤ 0.2

Row | Variant | one-hybrid fitness for binding NBS DNA
73 | SNDG | ≤ 0.2
74 | RGIV | ≤ 0.2
75 | PLWY | ≤ 0.2
76 | MIHF | ≤ 0.2
77 | LTNS | ≤ 0.2
78 | YDRH | ≤ 0.2
79 | RLTC | ≤ 0.2
80 | QSTS | 0.364
81 | DTQP | ≤ 0.2
82 | ADYG | ≤ 0.2
83 | YQRH | ≤ 0.2
84 | RVMT | 0.321
85 | LRDW | ≤ 0.2
86 | YLSR | ≤ 0.2
87 | MMTT | ≤ 0.2
88 | PLTR | ≤ 0.2
89 | PVLD | ≤ 0.2
90 | PVRM | ≤ 0.2
91 | SLTR | ≤ 0.2
92 | QPLQ | ≤ 0.2
93 | KTWQ | ≤ 0.2
94 | WNND | ≤ 0.2
95 | SVVD | ≤ 0.2
96 | MQSR | ≤ 0.2

Row | Variant | one-hybrid fitness for binding NBS DNA
97 | AKRV | ≤ 0.2
98 | SLEV | ≤ 0.2
99 | SSKR | 0.205
100 | LVVS | ≤ 0.2
101 | PQHV | ≤ 0.2
102 | HQYW | ≤ 0.2
103 | IPQC | ≤ 0.2
104 | KRWT | 0.669
105 | YNAE | ≤ 0.2
106 | FFRS | ≤ 0.2
107 | QTVL | ≤ 0.2
108 | RTCT | 0.531
109 | RVWN | ≤ 0.2
110 | GVSK | ≤ 0.2
111 | VVCG | ≤ 0.2
112 | SLYI | ≤ 0.2
113 | VYMY | ≤ 0.2
114 | PAAC | ≤ 0.2
115 | QTRP | 0.401
116 | QGHF | ≤ 0.2
117 | EPHC | ≤ 0.2
118 | AVSD | ≤ 0.2
119 | YVLG | ≤ 0.2
120 | RYRE | ≤ 0.2

Row | Variant | one-hybrid fitness for binding NBS DNA
121 | DTYY | ≤ 0.2
122 | RNWE | ≤ 0.2
123 | TSNW | ≤ 0.2
124 | QCDW | ≤ 0.2
125 | PRYQ | ≤ 0.2
126 | YIST | ≤ 0.2
127 | QYMG | ≤ 0.2
128 | TGRK | ≤ 0.2
129 | WGLS | ≤ 0.2
130 | NNLW | ≤ 0.2
131 | QPQG | ≤ 0.2
132 | RYLP | ≤ 0.2
133 | FEVR | ≤ 0.2
134 | GMYR | ≤ 0.2
135 | NSER | ≤ 0.2
136 | TPII | ≤ 0.2
137 | WMAG | ≤ 0.2
138 | HKGV | ≤ 0.2
139 | RSKW | ≤ 0.2
140 | HWES | ≤ 0.2
141 | RFSM | ≤ 0.2
142 | SDWR | ≤ 0.2
143 | QKQY | 0.243
144 | YNYT | ≤ 0.2

Row | Variant | one-hybrid fitness for binding NBS DNA
145 | TCWS | ≤ 0.2
146 | TMES | ≤ 0.2
147 | ALQL | ≤ 0.2
148 | RDQT | ≤ 0.2
149 | KHKV | ≤ 0.2
150 | TGKN | ≤ 0.2
151 | CGNR | ≤ 0.2
152 | RYNI | ≤ 0.2
153 | QSLD | ≤ 0.2
154 | WKIY | ≤ 0.2
155 | WTAG | ≤ 0.2
156 | AVDH | ≤ 0.2
157 | GSWC | ≤ 0.2
158 | AAAH | ≤ 0.2
159 | VPFG | ≤ 0.2
160 | QACV | ≤ 0.2
161 | TYFH | ≤ 0.2
162 | EPPW | ≤ 0.2
163 | AIEG | ≤ 0.2
164 | FRRM | ≤ 0.2
165 | RKPL | ≤ 0.2
166 | AKVG | ≤ 0.2
167 | PPRG | ≤ 0.2
168 | NNFL | ≤ 0.2

Row | Variant | one-hybrid fitness for binding NBS DNA
169 | RWEA | ≤ 0.2
170 | CRNT | 0.326
171 | CAAR | ≤ 0.2
172 | SVPS | ≤ 0.2
173 | RRHN | 0.331
174 | YRHK | ≤ 0.2
175 | RRYE | ≤ 0.2
176 | AFLN | ≤ 0.2
177 | GHWC | ≤ 0.2
178 | SFKC | ≤ 0.2
179 | QCFY | 0.213
180 | IMFR | ≤ 0.2
181 | EPSD | ≤ 0.2
182 | IVLV | ≤ 0.2
183 | AQQR | ≤ 0.2
184 | LEAG | ≤ 0.2
185 | CKSI | ≤ 0.2
186 | NHYC | ≤ 0.2
187 | GNPT | ≤ 0.2
188 | MTWS | ≤ 0.2
189 | MMSN | ≤ 0.2
190 | NVPT | ≤ 0.2
191 | SAAI | ≤ 0.2
192 | EAHV | ≤ 0.2

Row | Variant | one-hybrid fitness for binding NBS DNA
193 | HPAF | ≤ 0.2
194 | TPQV | ≤ 0.2
195 | CMKS | ≤ 0.2
196 | IVSA | ≤ 0.2
197 | RQHA | ≤ 0.2
198 | DQSY | ≤ 0.2
199 | SRQL | ≤ 0.2
200 | PAPY | ≤ 0.2
201 | SNTI | ≤ 0.2
202 | KANR | ≤ 0.2
203 | AAWN | ≤ 0.2
204 | NNPT | ≤ 0.2
205 | NTSV | ≤ 0.2
206 | DSSI | ≤ 0.2
207 | PADF | ≤ 0.2
208 | CMQL | ≤ 0.2
209 | RHDR | 0.216
210 | LLFP | ≤ 0.2
211 | QILM | ≤ 0.2
212 | AEPC | ≤ 0.2
213 | GRKH | ≤ 0.2
214 | GAEI | ≤ 0.2
215 | REKE | ≤ 0.2
216 | MNMD | ≤ 0.2

Row | Variant | one-hybrid fitness for binding NBS DNA
217 | KATD | ≤ 0.2
218 | YHVS | ≤ 0.2
219 | QYHQ | ≤ 0.2
220 | AMGK | ≤ 0.2
221 | RQPH | ≤ 0.2
222 | KISI | ≤ 0.2
223 | FRDS | ≤ 0.2
224 | RQIA | ≤ 0.2
225 | KVTC | ≤ 0.2
226 | PANA | ≤ 0.2
227 | FPDF | ≤ 0.2
228 | QVVN | ≤ 0.2
229 | FNER | ≤ 0.2
230 | RGWT | ≤ 0.2
231 | SQTS | ≤ 0.2
232 | VRNR | 0.368
233 | TPPG | ≤ 0.2
234 | HMQF | ≤ 0.2
235 | EGST | ≤ 0.2
236 | RCAM | ≤ 0.2
237 | QIPF | ≤ 0.2
238 | LKPL | ≤ 0.2
239 | MLIG | ≤ 0.2
240 | QQAV | ≤ 0.2

Row | Variant | one-hybrid fitness for binding NBS DNA
241 | NKNC | ≤ 0.2
242 | CCTT | ≤ 0.2
243 | LFLW | ≤ 0.2
244 | SNCM | ≤ 0.2
245 | SNAV | ≤ 0.2
246 | REVI | ≤ 0.2
247 | PKGG | ≤ 0.2
248 | LMTW | ≤ 0.2
249 | KHKI | ≤ 0.2
250 | HYNR | ≤ 0.2
251 | EDPL | ≤ 0.2
252 | TTAT | ≤ 0.2
253 | MSDS | ≤ 0.2
254 | PQRW | ≤ 0.2
255 | TEMR | ≤ 0.2
256 | VYHT | ≤ 0.2
257 | WPGS | ≤ 0.2
258 | QKGA | 0.265
259 | PSKW | ≤ 0.2
260 | FPPS | ≤ 0.2
261 | PSCW | ≤ 0.2
262 | GWRW | ≤ 0.2
263 | GHDF | ≤ 0.2
264 | PWLS | ≤ 0.2

Row | Variant | one-hybrid fitness for binding NBS DNA
265 | GVND | ≤ 0.2
266 | EVFS | ≤ 0.2
267 | REKA | ≤ 0.2
268 | SLSQ | ≤ 0.2
269 | PPVK | ≤ 0.2
270 | TPNV | ≤ 0.2
271 | QVQW | ≤ 0.2
272 | KRRE | ≤ 0.2
273 | ICQR | ≤ 0.2
274 | RHSE | ≤ 0.2
275 | PLWE | ≤ 0.2
276 | NANN | ≤ 0.2
277 | LQCS | ≤ 0.2
278 | NVIV | ≤ 0.2
279 | WAYR | ≤ 0.2
280 | HDGS | ≤ 0.2
281 | STYL | ≤ 0.2
282 | PWPS | ≤ 0.2
283 | NMKQ | ≤ 0.2
284 | RSTG | ≤ 0.2
285 | VIPR | ≤ 0.2
286 | QDRC | ≤ 0.2
287 | QKHF | ≤ 0.2
288 | EANI | ≤ 0.2

Row | Variant | one-hybrid fitness for binding NBS DNA
289 | AYNS | ≤ 0.2
290 | FTCL | ≤ 0.2
291 | CNSI | ≤ 0.2
292 | TPRK | ≤ 0.2
293 | TTQA | ≤ 0.2
294 | CMEG | ≤ 0.2
295 | AQSQ | ≤ 0.2
296 | TEPP | ≤ 0.2
297 | PQIL | ≤ 0.2
298 | KCKE | ≤ 0.2
299 | TDTD | ≤ 0.2
300 | PRRM | ≤ 0.2
301 | CRWR | ≤ 0.2
302 | FQGG | ≤ 0.2
303 | QSPE | ≤ 0.2
304 | STQF | ≤ 0.2
305 | PMIW | ≤ 0.2
306 | QHEV | ≤ 0.2
